This is one part of the list. Most values come without repeats; read them as rough.
tested on: COLO792; experiment: cell count relative to DMSO control; melanoma cells; higher = more viable cells; conditions: library dose: standard library concentration; 72 h
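Note: cells treated in 1,536-well plates, then fixed and DAPI-stained, with nuclei counted from automated high-throughput microscope images.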

Structure (SMILES)	cell count [%]
Cn1cc(/C=C2\C(=O)Nc3cccnc32)c2ccccc21 + CCCCCCCCCCCC1=C(O)C(=O)C=C(O)C1=O [Embelin] (first compound 2 µM, partner dose 6 µM)	90.2
COc1ccc2c(c1)CCC1C2CCC2(C)C(NCCCCCCN3C(=O)C=CC3=O)CCC12 (centres undefined) + CCCCCCCCCCCC1=C(O)C(=O)C=C(O)C1=O [Embelin] (first compound 2 µM, partner dose 6 µM)	28.9
COc1cc2ncnc(Nc3ccc(Oc4ccccc4)cc3)c2cc1OC + Cn1cc(/C=C2\C(=O)Nc3cccnc32)c2ccccc21 [GW441756] (first compound 10 µM, partner dose 2 µM)	44.9
Cc1cc([N+](=O)[O-])ccc1NS(=O)(=O)c1cc(Cl)ccc1Cl + COc1cc(N2CCC(N3CCN(C)CC3)CC2)ccc1Nc1ncc(Cl)c(Nc2ccccc2S(=O)(=O)C(C)C)n1 [NVP-TAE684] (first compound 5 µM, partner dose 0.4 µM)	71.3
N#Cc1c(O)c2c(-c3ccc(-c4ccccc4O)cc3)csc2[nH]c1=O + COc1cc(N2CCC(N3CCN(C)CC3)CC2)ccc1Nc1ncc(Cl)c(Nc2ccccc2S(=O)(=O)C(C)C)n1 [NVP-TAE684] (first compound 10 µM, partner dose 0.4 µM)	77.3
O=S(=O)(c1ccccc1)N(CC(F)(F)F)c1ccc(C(O)(C(F)(F)F)C(F)(F)F)cc1 + Cc1cc([N+](=O)[O-])ccc1NS(=O)(=O)c1cc(Cl)ccc1Cl [FH535] (first compound 7 µM, partner dose 5 µM)	44.9
COc1ccc(-c2ccc3c(N4CCOCC4)nc(N4C[C@@H](C)O[C@@H](C)C4)nc3n2)cc1CO + Oc1nc(-c2ccc(C(F)(F)F)cc2)nc2c1CSCC2 [XAV939] (first compound 0.1 µM, partner dose 10 µM)	75.8
COc1ccc(-c2ccc3c(N4CCOCC4)nc(N4C[C@@H](C)O[C@@H](C)C4)nc3n2)cc1CO + O=C1NC(=O)/C(=C/c2ccc(-c3ccc(F)cc3O)o2)S1 [AS252424] (first compound 0.1 µM, partner dose 5 µM)	69.5
COC(=O)c1sccc1S(=O)(=O)Nc1ccc(Nc2ccccc2)cc1OC + Cc1cc([N+](=O)[O-])ccc1NS(=O)(=O)c1cc(Cl)ccc1Cl [FH535] (first compound 5 µM, partner dose 5 µM)	82
CCN(CC)CCCCNc1ncc2cc(-c3cc(OC)cc(OC)c3)c(NC(=O)NC(C)(C)C)nc2n1 + Cn1cc(/C=C2\C(=O)Nc3cccnc32)c2ccccc21 [GW441756] (first compound 0.5 µM, partner dose 2 µM)	98
CCN(CC)CCCCNc1ncc2cc(-c3cc(OC)cc(OC)c3)c(NC(=O)NC(C)(C)C)nc2n1 + c1cc(-c2cnn3cc(-c4ccc(OCCN5CCCCC5)cc4)cnc23)ccn1 [Dorsomorphin] (first compound 0.5 µM, partner dose 2 µM)	86
CCN(CC)CCCCNc1ncc2cc(-c3cc(OC)cc(OC)c3)c(NC(=O)NC(C)(C)C)nc2n1 + O=C(O)C(=O)Nc1sc2c(c1C(=O)O)CCNC2 [TCS401] (first compound 0.5 µM, partner dose 8.33333 µM)	82.5
COc1ccc(COc2ccc(Cc3cnc(N)nc3N)cc2OC)cc1 + O=S(=O)(c1ccccc1)N(CC(F)(F)F)c1ccc(C(O)(C(F)(F)F)C(F)(F)F)cc1 [T0901317] (first compound 5 µM, partner dose 7 µM)	94.8
O=S(=O)(c1ccccc1)N(CC(F)(F)F)c1ccc(C(O)(C(F)(F)F)C(F)(F)F)cc1 + Cn1cc(/C=C2\C(=O)Nc3cccnc32)c2ccccc21 [GW441756] (first compound 7 µM, partner dose 2 µM)	76.2
Cn1cc(/C=C2\C(=O)Nc3cccnc32)c2ccccc21 + CC(C)CCN1c2nc(Nc3cc(F)c(O)c(F)c3)ncc2N(C)C(=O)C1C [BID1870] (first compound 2 µM, partner dose 1 µM)	108
COC(=O)c1sccc1S(=O)(=O)Nc1ccc(Nc2ccccc2)cc1OC + COc1cc2ncnc(Nc3ccc(Oc4ccccc4)cc3)c2cc1OC [SrcI1] (first compound 5 µM, partner dose 10 µM)	78.2
O=S(=O)(c1ccccc1)N(CC(F)(F)F)c1ccc(C(O)(C(F)(F)F)C(F)(F)F)cc1 + CCCCCCCCCCCC1=C(O)C(=O)C=C(O)C1=O [Embelin] (first compound 7 µM, partner dose 6 µM)	65.9

Structure (SMILES)	cell count [%]
N#Cc1c(O)c2c(-c3ccc(-c4ccccc4O)cc3)csc2[nH]c1=O + COc1ccc(-c2ccc3c(N4CCOCC4)nc(N4C[C@@H](C)O[C@@H](C)C4)nc3n2)cc1CO [KU0063794] (first compound 10 µM, partner dose 0.1 µM)	80.7
COc1ccc2c(c1)CCC1C2CCC2(C)C(NCCCCCCN3C(=O)C=CC3=O)CCC12 (centres undefined) + CC(C)CCN1c2nc(Nc3cc(F)c(O)c(F)c3)ncc2N(C)C(=O)C1C [BID1870] (first compound 2 µM, partner dose 1 µM)	77.1
Oc1cc(-c2nc(-c3ccccc3)[nH]c2-c2ccncc2)ccc1Cl + O=C1NC(=O)/C(=C/c2ccc(-c3ccc(F)cc3O)o2)S1 [AS252424] (first compound 1 µM, partner dose 5 µM)	81.8
COc1ccc2c(c1)CCC1C2CCC2(C)C(NCCCCCCN3C(=O)C=CC3=O)CCC12 (centres undefined) + c1cc(-c2cnn3cc(-c4ccc(OCCN5CCCCC5)cc4)cnc23)ccn1 [Dorsomorphin] (first compound 2 µM, partner dose 2 µM)	82.2
Cn1cc(/C=C2\C(=O)Nc3cccnc32)c2ccccc21 + O=c1cc(-c2cccc3c2Sc2ccccc2S3)oc(N2CCOCC2)c1 [KU55933] (first compound 2 µM, partner dose 5 µM)	103
O=S(=O)(c1ccccc1)N(CC(F)(F)F)c1ccc(C(O)(C(F)(F)F)C(F)(F)F)cc1 + O=c1cc(-c2cccc3c2Sc2ccccc2S3)oc(N2CCOCC2)c1 [KU55933] (first compound 7 µM, partner dose 5 µM)	90.7
COc1ccc(COc2ccc(Cc3cnc(N)nc3N)cc2OC)cc1 + Oc1cc(-c2nc(-c3ccccc3)[nH]c2-c2ccncc2)ccc1Cl [L779450] (first compound 5 µM, partner dose 1 µM)	81.4
N#Cc1c(O)c2c(-c3ccc(-c4ccccc4O)cc3)csc2[nH]c1=O + c1cc(-c2cnn3cc(-c4ccc(OCCN5CCCCC5)cc4)cnc23)ccn1 [Dorsomorphin] (first compound 10 µM, partner dose 2 µM)	80.1
Oc1nc(-c2ccc(C(F)(F)F)cc2)nc2c1CSCC2 + COc1cc(N2CCC(N3CCN(C)CC3)CC2)ccc1Nc1ncc(Cl)c(Nc2ccccc2S(=O)(=O)C(C)C)n1 [NVP-TAE684] (first compound 10 µM, partner dose 0.4 µM)	73.6
COc1ccc(-c2ccc3c(N4CCOCC4)nc(N4C[C@@H](C)O[C@@H](C)C4)nc3n2)cc1CO + O=S(=O)(c1ccccc1)N(CC(F)(F)F)c1ccc(C(O)(C(F)(F)F)C(F)(F)F)cc1 [T0901317] (first compound 0.1 µM, partner dose 7 µM)	63.7
COc1ccc(COc2ccc(Cc3cnc(N)nc3N)cc2OC)cc1 + CC(C)CCN1c2nc(Nc3cc(F)c(O)c(F)c3)ncc2N(C)C(=O)C1C [BID1870] (first compound 5 µM, partner dose 1 µM)	80.2
c1cc(-c2cnn3cc(-c4ccc(OCCN5CCCCC5)cc4)cnc23)ccn1 [Dorsomorphin] + CC(C)CCN1c2nc(Nc3cc(F)c(O)c(F)c3)ncc2N(C)C(=O)C1C [BID1870] (first compound 2 µM, partner dose 1 µM)	87.2
N#Cc1c(O)c2c(-c3ccc(-c4ccccc4O)cc3)csc2[nH]c1=O + O=c1cc(-c2cccc3c2Sc2ccccc2S3)oc(N2CCOCC2)c1 [KU55933] (first compound 10 µM, partner dose 5 µM)	94.3
N#Cc1c(O)c2c(-c3ccc(-c4ccccc4O)cc3)csc2[nH]c1=O + CCN(CC)CCCCNc1ncc2cc(-c3cc(OC)cc(OC)c3)c(NC(=O)NC(C)(C)C)nc2n1 [PD173074] (first compound 10 µM, partner dose 0.5 µM)	93.7
Oc1cc(-c2nc(-c3ccccc3)[nH]c2-c2ccncc2)ccc1Cl + Oc1nc(-c2ccc(C(F)(F)F)cc2)nc2c1CSCC2 [XAV939] (first compound 1 µM, partner dose 10 µM)	98.8
O=S(=O)(c1ccccc1)N(CC(F)(F)F)c1ccc(C(O)(C(F)(F)F)C(F)(F)F)cc1 + Oc1cc(-c2nc(-c3ccccc3)[nH]c2-c2ccncc2)ccc1Cl [L779450] (first compound 7 µM, partner dose 1 µM)	82.3
N#Cc1c(O)c2c(-c3ccc(-c4ccccc4O)cc3)csc2[nH]c1=O + Oc1cc(-c2nc(-c3ccccc3)[nH]c2-c2ccncc2)ccc1Cl [L779450] (first compound 10 µM, partner dose 1 µM)	143
